Hit rate of the full screen: of about 310,000 compounds, about 14,000 (4.5%) showed an effect of 50% or more. The effect is printed as a negative number. This is one part of the list.
These compounds were tested against human ether-à-go-go-related gene (hERG) potassium channel (human, UniProt Q12809) (assay: primary screen, population patch clamp on CHO cells stably expressing hERG).
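Further: peak tail current of the secondary pulse compared with the same well before compound.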

human ether-à-go-go-related gene (hERG) potassium channel, sequence (Q12809 whole entry, looked up): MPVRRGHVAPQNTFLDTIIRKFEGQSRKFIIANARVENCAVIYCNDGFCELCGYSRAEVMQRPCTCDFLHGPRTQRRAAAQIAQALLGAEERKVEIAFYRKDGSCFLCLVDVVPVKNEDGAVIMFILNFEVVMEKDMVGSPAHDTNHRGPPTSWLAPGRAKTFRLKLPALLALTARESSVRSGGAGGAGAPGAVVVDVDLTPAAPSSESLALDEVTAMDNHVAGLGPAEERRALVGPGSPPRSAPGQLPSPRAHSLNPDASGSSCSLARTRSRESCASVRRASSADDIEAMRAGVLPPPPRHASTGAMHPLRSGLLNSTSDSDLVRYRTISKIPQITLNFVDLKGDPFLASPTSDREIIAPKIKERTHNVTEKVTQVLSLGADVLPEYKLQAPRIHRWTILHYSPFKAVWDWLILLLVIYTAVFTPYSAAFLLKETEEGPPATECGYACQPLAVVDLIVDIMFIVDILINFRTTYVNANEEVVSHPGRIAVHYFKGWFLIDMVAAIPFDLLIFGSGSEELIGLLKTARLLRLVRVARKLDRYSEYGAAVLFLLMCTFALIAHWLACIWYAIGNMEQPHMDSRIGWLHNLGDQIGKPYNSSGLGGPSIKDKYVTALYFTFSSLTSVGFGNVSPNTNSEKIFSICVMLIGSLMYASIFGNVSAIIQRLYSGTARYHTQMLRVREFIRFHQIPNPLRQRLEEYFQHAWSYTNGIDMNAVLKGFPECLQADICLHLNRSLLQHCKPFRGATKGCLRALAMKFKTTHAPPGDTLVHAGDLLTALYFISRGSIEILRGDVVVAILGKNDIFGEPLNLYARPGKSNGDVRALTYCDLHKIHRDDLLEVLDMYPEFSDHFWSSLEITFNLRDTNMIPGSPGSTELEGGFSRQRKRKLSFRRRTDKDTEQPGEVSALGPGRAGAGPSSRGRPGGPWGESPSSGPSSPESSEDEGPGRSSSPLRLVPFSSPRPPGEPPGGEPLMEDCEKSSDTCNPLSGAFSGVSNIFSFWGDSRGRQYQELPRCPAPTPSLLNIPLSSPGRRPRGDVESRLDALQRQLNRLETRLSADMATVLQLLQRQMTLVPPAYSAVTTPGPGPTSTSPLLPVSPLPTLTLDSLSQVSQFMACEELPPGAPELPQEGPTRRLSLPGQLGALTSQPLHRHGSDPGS

Row | SMILES | hERG current change (%, negative = inhibition) at 10uM [%]
1 | Cc1ccc(-n2ncc3c(NCCCn4ccnc4)ncnc32)c(C)c1 | -17.9
2 | O=c1cc(CN2CCN(CCO)CC2)c2cc3c(cc2o1)CCC3 | -17.2
3 | COc1cccc(C(=O)NCCC2=CCCCC2)c1 | -6.44
4 | CC1(C)SC(=S)N(NC(=O)Nc2ccccc2)C1N(O)C(=O)Nc1cccc2ccccc12 (stereo not drawn) | 4.36
5 | CN(C)C(CNC(=O)CCC(=O)c1ccc(Br)cc1)c1ccccc1 (stereo not drawn) | -13.2
6 | Cc1ccc(S(=O)(=O)NN=C2CCN(Cc3ccccc3)CC2)cc1 | 0.546
7 | O=C(CSc1ncccc1C(=O)O)NCc1ccc(F)cc1 | -2.84
8 | O=C(Oc1ccc(Cl)c2cccnc12)c1ccco1 | -11
9 | CCc1[nH]c(=S)c(C#N)c2c1CCCC2 | 14.9
10 | COc1ccc(CN(C)C2c3ccccc3-c3ccccc32)cc1 | 17.4
11 | C=CCOc1ccc(C2NC(=O)c3ccccc3O2)cc1OCC (stereo not drawn) | 18.9
12 | CCOC(=O)c1sc(NC(=O)CSc2nc3c(c(-c4ccc(OC)cc4)c2C#N)CCCC3)c(C#N)c1C | 43
13 | CC(=O)N1c2ccccc2N(Cc2ccc([N+](=O)[O-])cc2)C(=O)C1(C)C | -2.41
14 | CC1CCCN(C(=O)CSc2n[nH]c(-c3cccs3)n2)C1 (stereo not drawn) | 1.03
15 | CCOC(=O)c1cc(C)n(-n2cnnc2)c1C | -0.599
16 | CCc1ccc(-c2nc(SCC(=O)c3c(N)n(C4CC4)c(=O)[nH]c3=O)n[nH]2)cc1 | -14
17 | Cn1c(SCC(=O)c2ccccc2)nnc1-c1cnccn1 | 6.47
18 | O=C(CCn1nc(-c2ccc(Cl)cc2)c2ccccc2c1=O)NN1CCOCC1 | -29.8
19 | Cc1cc(C)n2nc(S(=O)(=O)N(C)c3ccccc3)nc2n1 | 8
20 | Cl.O=C(Cn1c(NCCO)nc2ccccc21)c1ccc(Cl)cc1Cl | -11.2
21 | Cc1ccc(C(=O)Oc2ccccc2N2C(=O)C3CCC(C)CC3C2=O)cc1 (stereo not drawn) | -9.79
22 | CC(C)(C)NC(=O)c1ccc(COc2ccc(Cl)cc2Cl)o1 | 3.88
23 | COc1ccc(C(=O)NN(C)c2nc(-c3ccccc3)cc(C)c2S(C)(=O)=O)cc1 | 9.62

Row | SMILES | hERG current change (%, negative = inhibition) at 10uM [%]
24 | COc1c2occc2cc2ccc(=O)oc12 | 10.8
25 | O=C(/C=C/c1ccco1)NC(=S)Nc1ccccc1 | 17.3
26 | Cc1cc(C)n2nc(C(=O)OCC(=O)Nc3cc(Cl)ccc3C)nc2n1 | -4.78
27 | Cc1cc(C)c(S(=O)(=O)N2CCc3ccccc32)c(C)c1 | 22.9
28 | Nc1nc(N)c2sc3nc4c(cc3c2n1)CCC4 | -1.09
29 | CC12CCC(=O)N1C(C(=O)OCC(=O)Nc1cccc(S(=O)(=O)N3CCCCCC3)c1)CS2 (stereo not drawn) | -86.8
30 | CCCNc1nc(Cl)nc(NCc2cccnc2)n1 | 4.75
31 | Nc1nc(N)nc(-c2ccccc2)n1 | 18.7
32 | Cc1c(-c2nc(-c3ccc(C(F)(F)F)cc3)no2)n(C)oc1=O | 8.16
33 | CCN1C(=O)[C@H]2[C@@H](c3ccc(C)cc3)N3C(=O)N(c4cccc(Cl)c4)C(=O)[C@@]3(C)[C@H]2C1=O | 10.5
34 | COc1ccc(CCC(C)NCCc2ccccc2)cc1 (stereo not drawn) | -29.6
35 | COC(=O)CNC(=O)c1ccc2c(c1)S(=O)(=O)c1ccccc1C2=O | -4.35
36 | COc1cc(Cl)c(C)cc1NC(=O)c1ccc(S(C)(=O)=O)cc1 | -5.28
37 | O=C(c1cc(-c2ccco2)nc2ccccc12)N1CCN(Cc2ccccc2)CC1 | -42.8
38 | Cc1ccc(S(=O)(=O)NC(Cc2ccc(Cl)cc2)C(=O)O)cc1 (stereo not drawn) | 22.1
39 | CC1CC1C(=O)Nc1cc(C(F)(F)F)ccc1N1CCOCC1 (stereo not drawn) | 6.94
40 | N#Cc1c(NC(=O)CSc2ncn[nH]2)sc2c1CCCC2 | 3.78
41 | CCCCN1C(=O)c2ccc(C(=O)NCCN3C(=O)S/C(=C\c4cccnc4)C3=O)cc2C1=O | 3.77
42 | COC(=O)C1CCN(C(=O)Nc2ccccc2)CC1 | 24.3
43 | CC(/C=C/c1ccccc1)NC(N)=O (stereo not drawn) | 6.49
44 | Cc1ccc(S(=O)(=O)NNC(=S)NCCc2ccccc2)cc1 | -7.79
45 | COc1c(C)cc(Br)cc1C(=O)Nc1cccc(NC(=O)c2ccco2)c1 | -10.1

From PMC4336329 (PLoS ONE, 2015)
